Source: the supplement of paper PMC3334620
Over roughly 33,000 sequences, “E-score (-0.5 to 0.5)” has its median near -0.032; the highest 2% begin near 0.36. This is one part of the list.

The sequences below were run against T1, Sko1 (UniProt Q02100) (assay: PBM E-score (8-mer binding enrichment) (E-score (-0.5 to 0.5)); higher = stronger / more preferred TF binding; most listed sequences are background and not binding sites). Conditions: protein concentration: 200 nM; construct: GST-full length.
T1 sequence: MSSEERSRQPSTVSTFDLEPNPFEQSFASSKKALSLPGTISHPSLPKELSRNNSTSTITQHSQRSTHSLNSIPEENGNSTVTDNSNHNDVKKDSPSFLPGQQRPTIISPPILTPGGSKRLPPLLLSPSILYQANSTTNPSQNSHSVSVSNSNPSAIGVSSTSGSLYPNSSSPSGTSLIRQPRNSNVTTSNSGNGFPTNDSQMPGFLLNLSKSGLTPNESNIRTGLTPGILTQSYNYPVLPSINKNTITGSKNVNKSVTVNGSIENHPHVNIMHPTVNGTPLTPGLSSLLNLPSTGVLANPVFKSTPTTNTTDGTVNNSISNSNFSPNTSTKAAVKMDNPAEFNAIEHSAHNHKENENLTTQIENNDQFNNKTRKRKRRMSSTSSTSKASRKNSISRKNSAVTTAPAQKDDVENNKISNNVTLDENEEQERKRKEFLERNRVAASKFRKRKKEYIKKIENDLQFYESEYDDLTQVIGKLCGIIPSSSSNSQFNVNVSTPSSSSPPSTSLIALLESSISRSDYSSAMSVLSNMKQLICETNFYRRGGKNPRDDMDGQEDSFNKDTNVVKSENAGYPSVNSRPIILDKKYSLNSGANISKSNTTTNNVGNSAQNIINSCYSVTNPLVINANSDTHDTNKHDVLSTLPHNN
Summary of the method: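 Universal all-10-mer Agilent arrays, double-stranded by primer extension on fresh or once-stripped slides, were probed with about 100-200 nM GST-tagged yeast transcription factors made by PURExpress. Fluorescent anti-GST detected bound protein, and masliner normalised the scans. E-scores from the Universal PBM Analysis Suite were given to each ungapped eight-base word pooled with its reverse complement.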

Sequence	PBM E-score
CATTCGAG	0.0237
TCTCGGAA	0.0601
AGCCAAAG	-0.243
AGCGTGCG	0.00059
CCATATAA	0.0576
CCGCCCTA	-0.125
AATACGAA	0.324
GTAGAAGA	-0.131
CATTTAGC	0.00024
CACAACCC	-0.0859
GAAGAGAC	0.0544
AACAGCTA	-0.0803
CACATAAG	0.147
GCAAAGGC	-0.212
ATTAGAAA	0.176
CACCGGGA	-0.25
AGTATACT	-0.0304
AGCCAACT	-0.128
GAGCGTAA	0.218
ACGCCGAT	-0.0314
GGAAGACC	-0.407
AACTGATT	0.0438
GACGAGTC	0.0596
CCGTTACG	0.354
AGCGTAAC	0.266

Sequence	PBM E-score
AAAGTTGG	0.0645
AAAATGAT	0.246
TAATGATA	0.354
GGTGCCAC	-0.146
CGCTGCGA	-0.0517
CTTTCCCA	-0.154
ACGCTCTA	-0.0609
CTCCGTCA	0.134
AGTGGGTC	-0.183
AGCGCAAG	-0.154
CCTGGCCC	-0.327
CTCAATCA	0.0356
AGGTTGCC	-0.248
AATCTGCT	0.0911
AGGCACCT	-0.325
CTAAGTAA	0.0516
ACGTAACG	0.469
GACCGTGA	-0.117
AAAGCAAA	0.128
CACCCATC	-0.0712
AAACAGGT	-0.126
CAATTAAG	0.0356
CTGTGGCC	-0.196
AGCTGTTC	-0.196
AAGTTCAA	-0.0679

Sequence	PBM E-score
AATCTCCC	-0.0971
GAGCCAAA	-0.187
TCAACTCA	0.068
AATCAGGT	0.113
AGCTACCA	-0.115
GATTTGCC	-0.0198
CTATAAAG	0.0758
CCCTTTGA	-0.306
AAACCTAG	-0.0586
GCAGCCCA	-0.109
ATATAACC	-0.0412
GCCGCACA	-0.172
AGTTTGGA	0.108
AAAATATA	0.177
ATGCAAGG	-0.304
GCCAGGAC	-0.156
TAGGGACA	-0.256
GGAAGAAA	-0.113
AAGAAGGG	-0.151
GAAGCGCA	-0.172
GCCTCTAC	-0.189
GGTAATAC	0.178
ATAAGTTA	0.201
CCAGCAGC	-0.227
AGGGTCAA	-0.0744

Sequence	PBM E-score
ACCGATAA	0.0085
AGCCCTTA	0.0228
GTCGTAAC	0.267
CTGTAGTC	-0.165
ACTAGCAG	-0.137
AGCTCTAC	-0.106
GAATTCCC	-0.162
ATACTAAG	-0.00391
CCTTGCCA	-0.197
ATGCTGCC	-0.0786
CCGAGAAA	0.0233
CTCAGTCC	0.0298
CAACCATA	0.134
CGCGTGCA	0.0852
CGAATCAA	0.209
CCGTGTAG	-0.181
GCGTAAGC	0.294
CAGCTATA	-0.116
ATGCATAG	0.00265
CGCTAAGA	0.0374
GGGAGATA	-0.163
TCATCGAA	0.221
AGTATGAT	0.286
CCGATCGC	-0.0636
AGAGAATC	0.0604

Sequence	PBM E-score
CGAACACA	0.00171
GGCGAGCA	-0.182
CCGGTGAG	-0.236
GTCTAAAA	-0.0295
CGCGGTTA	-0.0722
ACGTTTTG	0.393
GGATTGCA	-0.193
AAAGGTGA	-0.09
TACATACA	0.281
GATGATAC	0.186
ATAAACGG	0.0318
AGAAAAGG	-0.169
GCTAATAA	0.00644
CACCCCTG	-0.201
ACCGTAGG	-0.28
GCCCGCGC	-0.176
AATCGTCA	0.423
CAGGCAGG	-0.00745
AATCGTGA	0.0972
CCTATCCG	-0.128
CGCGTTAA	0.0132
CGGCGACG	0.0694
CCTGTACG	0.117
AGTGTCGG	-0.263
CACGTCGG	0.183

Sequence	PBM E-score
CAATCGGA	-0.124
GACGTATA	0.453
ACGTCAGT	0.469
CACGCCAA	0.119
ATAAAAGC	0.0222
GATGAGGC	-0.17
AGTGGTTC	-0.08
TTACCAAA	0.158
CACCGGTA	-0.18
TATTCGAA	0.0721
CAGCTGTA	-0.256
GTCAACAC	0.142
ACGGCTCG	-0.0111
CAGAAAAC	0.234
CTAGTCCC	-0.0899
AATGTACT	0.0407
TGACGGCA	0.275
CAACAGAC	0.0225
CACTGGTA	0.0571
CCATCGTC	-0.0226
ATCACTAG	0.0764
GGTACACC	-0.18
AATAGAAT	0.104
GAGTCCAA	-0.167
GTACGCAC	0.303

Sequence	PBM E-score
ACCGGTCA	-0.154
ATCGCCCG	-0.179
CCAGAACG	-0.00441
AGCAGGCT	-0.301
CTGACTTA	0.0668
ACTTCTCT	-0.0928
AATTGCCC	-0.0343
CTTACATC	0.202
GAGACGGA	-0.0605
TACCGTGA	-0.139
ATAGAGCG	-0.23
CTTGAGTC	-0.175
ATGGTGCA	0.0432
ACTGTCAA	-0.0414
GACGGTAC	0.171
ATCACATA	0.3
CACCATGA	0.102
CAGATCTA	-0.00832
CGCCCCTC	-0.312
CACGGGTC	-0.136
GGATTCCA	0.0845
GATGAGCC	-0.167
GGCTTCCA	-0.218
ATGATAAC	0.263
AGGTATGA	0.0251

Sequence	PBM E-score
ATGCAACG	0.153
ACAACGTC	0.368
CGCGAACA	-0.0312
ATGACCGC	-0.0945
CTTTCCGA	-0.203
ACTGATCA	0.108
AATTGCTC	-0.193
GCCCGAAA	0.0303
ATAGATTA	0.278
CCGCTTTA	0.0682
AGACGCTG	-0.213
GGGTGTTA	-0.0119
CATCGCAG	-0.143
GCCGTCCA	-0.16
CCCTAGCG	-0.396
GACGGAGC	-0.322
ACAATCAA	0.0869
AACGACAA	0.165
AAATGATG	0.373
AGATTATC	-0.0109
CACATTCG	0.088
AGTCCACG	0.0506
ATTACCGA	0.0448
ATCGGTGA	0.12
AGCGAAGG	-0.122

Sequence	PBM E-score
CCGTTATC	-0.00855
CTCCCTAA	-0.121
AATGCTCA	0.209
CAAGTAGG	-0.148
GACCTCTA	-0.154
AAACACGC	0.316
ACGTCGCG	0.356
GTCATAAA	0.364
GACGATCA	0.026
AACATCGC	-0.0887
GCTTTGGA	0.0123
CAACTCCA	-0.0701
AATTGGAT	0.0845
ATTAAAAT	0.217
CTTATTCA	0.0262
TAATAAGA	0.178
CGGGACTC	-0.189
ATCCCTGG	-0.227
CGTCGAGA	0.192
AATAACTA	0.186
GACGTGGC	0.189
CGGAGTAA	-0.0566
AGAAATAT	0.114
AAAACATT	0.0995
CCATTAAG	-0.0741

Sequence	PBM E-score
GCAATGAC	0.374
TCCCACAA	-0.16
CGGTAGTC	-0.274
GAAGTCTA	-0.142
ACCAGGCG	-0.16
ATGCAAGA	0.0657
AGGATAAT	0.0588
AACATCTT	0.118
AGCATCGA	-0.136
TGTGCGAA	-0.0341
CTGCCCGC	-0.0733
GCACGGGA	-0.156
GACCTTTA	-0.0128
GAAGCGTA	0.0736
CGGTTATA	-0.0341
AATCTATC	0.0137
AACTGGAT	-0.046
ACTGAGGC	-0.00682
AATACTCC	-0.233
CAGTGCCC	-0.118
CTTATCCC	-0.0649
CGTCGGGC	-0.216
GAACTAAC	0.00301
GCCTCTAA	-0.172
CGATAACC	-0.0651

Sequence	PBM E-score
CCTTTCCA	-0.152
ATCCATCA	-0.0535
GGTCAGAC	-0.241
ATTTTGTC	0.208
GGCGAGAC	-0.00381
CAGTCGAA	-0.0717
AAGTTATT	0.15
ACGCTAAA	0.0769
ACCTTCAT	-0.00414
GGCCATCA	-0.165
GATCTGAA	-0.139
CCTAGGAA	-0.0919
ATAAAGTG	0.11
CCTTTACG	0.278
AATGGAAT	0.137
CTGAAGCC	-0.255
GATGTCTA	0.109
CAGTACGC	0.194
CTGACTCA	-0.0405
ATAGTTTC	-0.0745
CAATGTGG	0.0109
ACTAGATA	0.215
CAGATGAC	0.37
AACGGCAT	0.048
ACAACAGT	-0.0679

Sequence	PBM E-score
ACTCAAAC	0.0881
CTCAGCGC	-0.103
GACTTACC	-0.217
GGGGGGTA	-0.178
AACAATTG	0.0266
GGCCCCCA	-0.32
CTACTAGC	-0.00047
ACGACCCC	-0.193
GATGCTGA	-0.186
GACGCTAC	0.181
ACGGAAAG	-0.0231
ACTAACCT	-0.0409
CTTACCAA	0.0713
CTATACCC	-0.219
TGTCACAA	0.133
CCAACACG	0.281
GCCTGTCC	-0.297
CGGACGAG	-0.152
AATGAATA	0.0911
GTACCGCA	0.116
TCTTCACA	0.126
CGCACAAC	0.0655
ATCTCCGA	-0.0214
CACCTAGC	-0.173
GTGATATA	0.0787

Sequence	PBM E-score
ACTGAGTC	-0.129
ATGAAGCC	-0.164
AGGAATTG	0.0885
GGCCGCGA	-0.122
CCGAGTAG	-0.225
ATCCCGGG	-0.241
CAGCTGAA	-0.0103
AGTACCCA	-0.0715
TCCTTAAA	0.0765
CTGCTCCC	-0.166
AAAAGCTA	0.141
ATAAAGTA	0.149
CACCCTCA	-0.264
ACGCCCGG	-0.174
GGGTTTTA	-0.163
AAGTCTTG	-0.133
CGGGGCTA	-0.13
CTTTACTC	0.266
AGAGGAAG	-0.228
CTCCAAGC	-0.181
GGGCGCGA	-0.192
CATACATG	0.206
ATGTTACG	0.354
ACTCGCAA	0.145
CAGCCTCC	-0.266

Sequence	PBM E-score
CCCGCGGC	-0.0957
CCCTCAGC	-0.292
AAATCACG	0.31
AGCCCCGG	-0.388
GGCCTCAA	-0.154
CGTGAGAC	0.068
GATCAACA	0.156
AAACCTGG	-0.17
CACGAGCA	-0.128
ATCCGCGC	-0.148
TCCGCAGA	-0.234
AATCTCGG	-0.0407
GTAAGACA	0.247
TATTTAAA	0.171
AGTTCCAA	-0.0785
AATTGCAC	-0.012
CGTACTGC	0.128
GGGACCGA	-0.248
GGTATTAC	0.204
